# Measured values: the supplement of paper PMC8728848
# The other results are listed elsewhere or left out.
# B1: Epa1-NP (Candida glabrata), Q6VBJ0 (protein)
# chain: MILNPALFLNKCVCIYTTLILLLLTNGGYATSSNDISLASKDPTTFPLGCSPDITTPKKGLSMELYSYDFRKKGSYPCWDAAYLDPNYPRTGYKSHRLLAKVDGVTGNINFYYHATKGCTPQLGHLPASYNYPKPLTMTNFTMLLYGYFRPKVTGFHTFTISADDLLFVNFGAGNAFDCCRRDSSADHFGNYQAYAIWGSKTAKDELTVHLDAGVYYPIRLFYNNREYDGALSFTFKTESNENTVSDFSEYFFSLDDTEEGCPGLISYDSSCASVKTSKIIGIDYHTETPNENLVPITKTIYHLGIPCTGTTTTPLCGSGFYDPLANKCVTINTSSTSSVTKTTSHTTSKEVSFHSSISSQKTLIPKSIPSPYGPIKSQSIPTEMETSSEISSSEYAFSDVISTPSHSPYTKKHSSLNSSSYTSTVIHSLTSYSISQGIFSTSLSEQNITSKSSTDKFSTATSMSNNITQSSIIISQFSTNNENYTTTSMHTSSDKISTETLNNSISTTTSILFSNSSTILKNNTTIISSDKDTHYHPVNPTIVCSTNKTEIICASITQPSISNSNNHWSSSVLKFNSTTVRSTLPSSAGSNETSINVPFSSSTESNTSTSSTSTSNSKMVRSTLPSSAGSNETSISVPFSSSTESNTSTSSTSTSNSKMVRSTLPSSAGSNETSINVPFSSSTESNTSTSSTSTSNSKTVRSTPFSSAGIIMTSLSQRNNKSASSYASSNSKCYNTADSCRKVHSTPSYLLTSSYTSEGVDYDCSLVSTKLKINDTNCVNNKHTTKSCLKTSVTTTIPTLEIKTARKSSSNTIGLHSYPTSSPNKSISSAPIIGYISSFKTIKTASPSYQTSDLTTITTITSLNNPGSTAVENTHESNDKSRKTSSNDISSKHSVIKETKDAVESSNKSHQTNTLKCSSIIIASSSHNSYESLGGTTLTLTLSKVYSPQNNDTLPFLEISEVNPSRTVLPESSKMMQYLTSTEERNKTARNTIATNIVSISTFHFEGEGNAIRMGYTQLLLMLIGIIVMNIGT
# Experiments:
# Experiment in all cases: glycan array binding signal (z-score within array); higher = stronger binding
# Details in all cases: glycan notation: IUPAC condensed, linker removed
# [1] = molecular target: Gal(b1-4)Glc
# Summary of the method: (§1)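 Negative Z-scores can be read as non-binding. The Z-score is calculated within each array and then averaged across arrays of one protein sequence at different concentrations or buffers and across linkers. Arrays, 3228 in all, were curated from the Consortium for Functional Glycomics database and kept only where the protein sequence was available.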
# [2] = molecular target: Gal(b1-4)Glc6S
# Summary of the method: as §1
# [3] = molecular target: Gal(b1-4)GlcNAc
# Summary of the method: as §1
# [4] = molecular target: Gal(b1-4)GlcNAc(a1-6)Gal(b1-4)GlcNAc
# Summary of the method: as §1
# [5] = molecular target: Gal(b1-4)GlcNAc(b1-2)Man
# Summary of the method: as §1
# [6] = molecular target: Gal(b1-4)GlcNAc(b1-2)Man(a1-3)Man(b1-4)GlcNAc(b1-4)GlcNAc
# Summary of the method: as §1
# [7] = molecular target: Gal(b1-4)GlcNAc(b1-2)Man(a1-3)[Gal(b1-4)GlcNAc(b1-2)Man(a1-6)]Man(b1-4)GlcNAc(b1-4)GlcNAc
# Summary of the method: as §1
# [8] = molecular target: Gal(b1-4)GlcNAc(b1-2)Man(a1-3)[Gal(b1-4)GlcNAc(b1-2)Man(a1-6)]Man(b1-4)GlcNAc(b1-4)[Fuc(a1-6)]GlcNAc
# Summary of the method: as §1
# [9] = molecular target: Gal(b1-4)GlcNAc(b1-2)Man(a1-3)[Gal(b1-4)GlcNAc(b1-2)Man(a1-6)][Gal(b1-4)GlcNAc(b1-4)]Man(b1-4)GlcNAc(b1-4)[Fuc(a1-6)]GlcNAc
# Summary of the method: as §1
# [10] = molecular target: Gal(b1-4)GlcNAc(b1-2)Man(a1-3)[Gal(b1-4)GlcNAc(b1-2)Man(a1-6)][GlcNAc(b1-4)]Man(b1-4)GlcNAc(b1-4)[Fuc(a1-6)]GlcNAc
# Summary of the method: as §1
# [11] = molecular target: Gal(b1-4)GlcNAc(b1-2)Man(a1-3)[Gal(b1-4)GlcNAc(b1-2)][GlcNAc(b1-4)]Man(b1-4)GlcNAc(b1-4)GlcNAc
# Summary of the method: as §1
# [12] = molecular target: Gal(b1-4)GlcNAc(b1-2)Man(a1-3)[GlcNAc(b1-2)Man(a1-6)]Man(b1-4)GlcNAc(b1-4)GlcNAc
# Summary of the method: as §1
# [13] = molecular target: Gal(b1-4)GlcNAc(b1-2)Man(a1-3)[GlcNAc(b1-4)][Gal(b1-4)GlcNAc(b1-2)Man(a1-6)]Man(b1-4)GlcNAc(b1-4)GlcNAc
# Summary of the method: as §1
# [14] = molecular target: Gal(b1-4)GlcNAc(b1-2)Man(a1-3)[Man(a1-6)]Man(b1-4)GlcNAc(b1-4)GlcNAc
# Summary of the method: as §1
# [15] = molecular target: Gal(b1-4)GlcNAc(b1-2)Man(a1-6)Man(b1-4)GlcNAc(b1-4)GlcNAc
# Summary of the method: as §1
# [16] = molecular target: Gal(b1-4)GlcNAc(b1-2)Man(a1-6)[GlcNAc(b1-2)Man(a1-3)]Man(b1-4)GlcNAc(b1-4)GlcNAc
# Summary of the method: as §1
# [17] = molecular target: Gal(b1-4)GlcNAc(b1-2)Man(a1-6)[Man(a1-3)]Man(b1-4)GlcNAc(b1-4)GlcNAc
# Summary of the method: as §1
# [18] = molecular target: Gal(b1-4)GlcNAc(b1-2)[Gal(b1-4)GlcNAc(b1-4)]Man(a1-3)[Gal(b1-4)GlcNAc(b1-2)Man(a1-6)]Man(b1-4)GlcNAc(b1-4)GlcNAc
# Summary of the method: as §1
# [19] = molecular target: Gal(b1-4)GlcNAc(b1-2)[Gal(b1-4)GlcNAc(b1-4)]Man(a1-3)[Gal(b1-4)GlcNAc(b1-2)[Gal(b1-4)GlcNAc(b1-6)]Man(a1-6)]Man(b1-4)GlcNAc(b1-4)GlcNAc
# Summary of the method: as §1
# [20] = molecular target: Gal(b1-4)GlcNAc(b1-2)[Gal(b1-4)GlcNAc(b1-4)]Man(a1-3)[GlcNAc(b1-4)][Gal(b1-4)GlcNAc(b1-2)Man(a1-6)]Man(b1-4)GlcNAc(b1-4)GlcNAc
# Summary of the method: as §1
# [21] = molecular target: Gal(b1-4)GlcNAc(b1-2)[Gal(b1-4)GlcNAc(b1-4)]Man(a1-3)[GlcNAc(b1-4)][Gal(b1-4)GlcNAc(b1-2)[Gal(b1-4)GlcNAc(b1-6)]Man(a1-6)]Man(b1-4)GlcNAc(b1-4)GlcNAc
# Summary of the method: as §1
# [22] = molecular target: Gal(b1-4)GlcNAc(b1-2)[Gal(b1-4)GlcNAc(b1-6)]Man(a1-6)[Gal(b1-4)GlcNAc(b1-2)Man(a1-3)]Man(b1-4)GlcNAc(b1-4)GlcNAc
# Summary of the method: as §1
# [23] = molecular target: Gal(b1-4)GlcNAc(b1-2)[Gal(b1-4)GlcNAc(b1-6)]Man(a1-6)[Gal(b1-4)GlcNAc(b1-2)Man(a1-3)]Man(b1-4)GlcNAc(b1-4)[Fuc(a1-6)]GlcNAc
# Summary of the method: as §1
# [24] = molecular target: Gal(b1-4)GlcNAc(b1-2)[Gal(b1-4)GlcNAc(b1-6)]Man(a1-6)[GlcNAc(b1-4)][Gal(b1-4)GlcNAc(b1-2)Man(a1-3)]Man(b1-4)GlcNAc(b1-4)GlcNAc
# Summary of the method: as §1
# [25] = molecular target: Gal(b1-4)GlcNAc(b1-2)[Gal(b1-4)GlcNAc(b1-6)]Man(a1-6)[GlcNAc(b1-4)][Gal(b1-4)GlcNAc(b1-2)[Gal(b1-4)GlcNAc(b1-4)]Man(a1-3)]Man(b1-4)GlcNAc(b1-4)[Fuc(a1-6)]GlcNAc
# Summary of the method: as §1
# [26] = molecular target: Gal(b1-4)GlcNAc(b1-3)Gal(b1-3)GalNAc
# Summary of the method: as §1
# [27] = molecular target: Gal(b1-4)GlcNAc(b1-3)Gal(b1-3)GlcNAc
# Summary of the method: as §1
# [28] = molecular target: Gal(b1-4)GlcNAc(b1-3)Gal(b1-4)Glc
# Summary of the method: as §1
# [29] = molecular target: Gal(b1-4)GlcNAc(b1-3)Gal(b1-4)GlcNAc
# Summary of the method: as §1
# [30] = molecular target: Gal(b1-4)GlcNAc(b1-3)Gal(b1-4)GlcNAc(b1-2)Man(a1-3)[Gal(b1-4)GlcNAc(b1-3)Gal(b1-4)GlcNAc(b1-2)Man(a1-6)]Man(b1-4)GlcNAc(b1-4)GlcNAc
# Summary of the method: as §1
binder,measurement,setting,value
B1,glycan array binding signal (z-score),[1],0.332
same,glycan array binding signal (z-score),[2],0.524
same,glycan array binding signal (z-score),[3],0.766
same,glycan array binding signal (z-score),[4],1.9
same,glycan array binding signal (z-score),[5],-0.27
same,glycan array binding signal (z-score),[6],0.062
same,glycan array binding signal (z-score),[7],1.2
same,glycan array binding signal (z-score),[8],0.002
same,glycan array binding signal (z-score),[9],-0.188
same,glycan array binding signal (z-score),[10],0.111
same,glycan array binding signal (z-score),[11],-0.209
same,glycan array binding signal (z-score),[12],-0.055
same,glycan array binding signal (z-score),[13],-0.191
same,glycan array binding signal (z-score),[14],-0.048
same,glycan array binding signal (z-score),[15],-0.239
same,glycan array binding signal (z-score),[16],-0.242
same,glycan array binding signal (z-score),[17],-0.225
same,glycan array binding signal (z-score),[18],0.847
same,glycan array binding signal (z-score),[19],1.29
same,glycan array binding signal (z-score),[20],0.319
same,glycan array binding signal (z-score),[21],1.55
same,glycan array binding signal (z-score),[22],0.754
same,glycan array binding signal (z-score),[23],1.37
same,glycan array binding signal (z-score),[24],0.156
same,glycan array binding signal (z-score),[25],1.62
same,glycan array binding signal (z-score),[26],-0.137
same,glycan array binding signal (z-score),[27],0.011
same,glycan array binding signal (z-score),[28],0.571
same,glycan array binding signal (z-score),[29],0.898
same,glycan array binding signal (z-score),[30],0.589
